According to the supplement of paper PMC12217912:
Some of the results follow. The full chains were built here from the parent and the listed change. Inactive controls read about 0.05.

B1: TEV protease; numbered along this chain (parent)
chain: MGESLFKGPRDYNPISSSICHLTNESDGHTTSLYGIGFGPFIITNKHLFRRNNGTLVVQSLHGVFKVKDTTTLQQHLVDGRDMIIIRMPKDFPPFPQKLKFREPQREERICLVTTNFQTKSMSSMVSDTSCTFPSGDGIFWKHWIQTKDGQCGSPLVSTRDGFIVGIHSASNFTNTNNYFTSVPKNFMELLTNQEAQQWVSGWRLNADSVLWGGHKVFMVKPEEPFQPVKEATQL

Variants of: B1
Test: raw area under fraction-flipped curve 0-4 h after induction (AUC4h, not background-subtracted), DNA-recorder readout of cleavage of the substrate (dimensionless); higher = more cleavage of the substrate by the protease variant
Settings: temperature: 34 °C; time window: 0-4 h after rhamnose induction
Protocol: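 In vivo DNA recorder in E. coli TOP10(DE3) ΔrhaA at 34 °C. Each TEVp single-site mutant (parent TEVp 0) is paired with a single-site variant of the 7-mer TEVs (canonical ENLYFQ|S). The substrate sits between flexible linkers in a Bxb1-sfGFP-TEVs-SsrA fusion, so cleavage stabilises Bxb1 and speeds flipping of a recombination array, read by NGS. The value is the raw area under the fraction-flipped curve over 0-4 h after rhamnose induction (AUC4h), with ≥20 reads per time point. It is not background-subtracted; inactive controls average about 0.047.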
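Note: Bxb1 expression induced with 0.2% (w/v) L-rhamnose at OD600 near 0.5, cultures sampled hourly, flipped fraction per protease–substrate barcode pair counted by paired-end Illumina sequencing.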

Variant | area with substrate ENLYFQA | area with substrate ENLYFQC | area with substrate ENLYFQF | area with substrate ENLYFQG | area with substrate ENLYFQH | area with substrate ENLYFQI | area with substrate ENLYFQK | area with substrate ENLYFQL | area with substrate ENLYFQN | area with substrate ENLYFQR | area with substrate ENLYFQS | area with substrate ENLYFQT | area with substrate ENLYFQW | area with substrate ENLYFQP | area with substrate ENLYFQM | area with substrate ENLYFQD | area with substrate ENLYFQV | area with substrate ENLYFQE | area with substrate ENLYFQQ | area with substrate ENLYFQY
A196Y | 0.106 | 0.13 | 0.0798 | 0.106 | 0.0877 | 0.0683 | 0.0667 | 0.0566 | 0.089 | 0.0601 | 0.11 | 0.102 | 0.0696 | – | – | – | – | – | – | –
W199I | 0.0567 | – | – | 0.0419 | – | – | 0.0712 | – | – | – | 0.0656 | 0.0472 | 0.0579 | 0.0809 | – | – | – | – | – | –
W199V | 0.0663 | 0.0556 | – | 0.0606 | – | 0.0657 | 0.0614 | 0.068 | 0.0669 | 0.043 | 0.0652 | 0.0605 | 0.0609 | – | 0.0561 | – | – | – | – | –
S201V | 0.128 | 0.132 | 0.0771 | 0.0955 | 0.0767 | 0.0381 | 0.0744 | – | 0.103 | 0.0504 | 0.1 | 0.0632 | 0.0644 | 0.0574 | 0.101 | 0.0739 | 0.0482 | – | – | –
S201Y | 0.0829 | 0.0957 | – | – | 0.0742 | 0.0667 | – | – | 0.0719 | 0.0365 | 0.0951 | – | – | 0.0762 | 0.0692 | – | 0.0636 | 0.0603 | 0.0654 | 0.0608
G202E | 0.07 | 0.0873 | – | 0.0556 | – | 0.0554 | 0.0579 | 0.0475 | 0.0549 | 0.0609 | 0.0673 | – | 0.0562 | – | 0.0687 | 0.0282 | 0.0519 | – | – | 0.0662
W203K | 0.083 | 0.0619 | – | – | – | 0.0472 | 0.0643 | – | 0.0673 | 0.0487 | 0.0676 | – | 0.0625 | – | 0.068 | 0.0608 | 0.061 | – | 0.0551 | –
W203L | 0.0558 | 0.0675 | – | 0.066 | 0.0702 | – | 0.0585 | 0.0578 | 0.0618 | – | 0.0689 | 0.0596 | 0.0707 | – | – | 0.0632 | 0.061 | 0.0539 | – | 0.0636
L205R | 0.059 | 0.0606 | – | 0.0605 | – | – | – | 0.0625 | 0.0506 | 0.0455 | 0.0634 | – | 0.058 | 0.0596 | 0.0534 | – | 0.0547 | – | – | –
N206E | 0.0938 | 0.137 | – | 0.0973 | 0.0868 | 0.0597 | 0.0641 | 0.0647 | 0.0857 | 0.0549 | 0.124 | – | – | 0.0721 | – | – | – | – | – | –
A207D | 0.1 | – | 0.0745 | 0.0892 | 0.0732 | 0.0603 | 0.0593 | 0.0631 | 0.0854 | 0.0486 | 0.112 | 0.0638 | 0.0949 | 0.0558 | – | – | 0.0418 | – | – | 0.0724
D208G | 0.0798 | 0.0732 | – | – | 0.0558 | – | 0.0595 | – | – | 0.053 | 0.0805 | 0.0549 | – | – | – | 0.0558 | – | – | 0.138 | –
L211K | 0.0897 | – | 0.0508 | – | 0.0658 | – | 0.0667 | 0.0807 | 0.0659 | – | 0.094 | 0.072 | 0.0671 | 0.0665 | 0.104 | – | – | – | 0.0753 | 0.0699
G214Q | 0.0944 | – | – | 0.0705 | – | – | – | – | – | – | 0.0871 | – | 0.0571 | – | – | – | 0.0689 | – | – | –
